In PMC4336329 (PLoS ONE, 2015):
Out of some 310,000 compounds screened, about 2,200 (0.71%) showed an effect of 50% or more. Effects have a minus sign here. Some of the results follow.

What follows are compounds tested against human ether-à-go-go-related gene (hERG) potassium channel (human, UniProt Q12809) (assay: primary screen, population patch clamp on CHO cells stably expressing hERG).
Sequence of human ether-à-go-go-related gene (hERG) potassium channel (Q12809 whole entry, looked up): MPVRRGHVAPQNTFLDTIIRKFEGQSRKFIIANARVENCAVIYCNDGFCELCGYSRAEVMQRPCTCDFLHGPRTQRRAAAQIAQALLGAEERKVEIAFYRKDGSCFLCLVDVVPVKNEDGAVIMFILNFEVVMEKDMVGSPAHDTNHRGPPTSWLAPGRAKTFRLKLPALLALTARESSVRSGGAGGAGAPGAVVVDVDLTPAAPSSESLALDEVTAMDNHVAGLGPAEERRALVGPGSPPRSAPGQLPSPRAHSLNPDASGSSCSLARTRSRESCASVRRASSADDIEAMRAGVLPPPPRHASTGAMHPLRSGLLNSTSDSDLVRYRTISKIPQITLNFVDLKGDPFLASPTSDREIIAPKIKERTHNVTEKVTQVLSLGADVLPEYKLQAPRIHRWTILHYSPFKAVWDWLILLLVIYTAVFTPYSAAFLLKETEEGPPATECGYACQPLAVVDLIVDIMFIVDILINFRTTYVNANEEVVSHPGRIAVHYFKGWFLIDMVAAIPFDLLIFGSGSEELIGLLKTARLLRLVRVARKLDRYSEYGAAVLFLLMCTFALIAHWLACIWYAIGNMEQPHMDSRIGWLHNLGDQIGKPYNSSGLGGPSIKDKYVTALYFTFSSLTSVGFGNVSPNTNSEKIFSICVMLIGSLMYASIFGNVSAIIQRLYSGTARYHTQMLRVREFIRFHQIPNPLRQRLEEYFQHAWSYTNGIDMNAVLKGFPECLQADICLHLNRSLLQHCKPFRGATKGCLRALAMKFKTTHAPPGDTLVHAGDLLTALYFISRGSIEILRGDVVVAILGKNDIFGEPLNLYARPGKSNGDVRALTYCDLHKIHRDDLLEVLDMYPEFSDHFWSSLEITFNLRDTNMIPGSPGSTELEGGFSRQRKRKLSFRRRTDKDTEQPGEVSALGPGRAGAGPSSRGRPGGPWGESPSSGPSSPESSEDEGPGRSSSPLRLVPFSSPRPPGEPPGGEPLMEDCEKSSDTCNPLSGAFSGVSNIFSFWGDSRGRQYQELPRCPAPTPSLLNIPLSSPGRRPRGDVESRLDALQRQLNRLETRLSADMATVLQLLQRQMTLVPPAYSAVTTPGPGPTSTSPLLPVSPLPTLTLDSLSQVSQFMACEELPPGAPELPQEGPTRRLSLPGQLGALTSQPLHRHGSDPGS

| Compound | hERG current change (%, negative = inhibition) at 1uM [%] |
| --- | --- |
| COc1ccc(S(=O)(=O)N2CCCCC2)cc1NC(=O)c1cccnc1SC | -0.883 |
| COc1ccc(OC)c(-n2nnnc2SCC(=O)Nc2cc(C)ccc2OC)c1 | 2.8 |
| O=C(O)COc1ccc(/C=N/NC(=O)c2cn(-c3ccccc3)nc2-c2ccccc2)cc1 | 1.75 |
| CC(NS(=O)(=O)c1ccc(CCC(=O)N2CCN(C)CC2)cc1)c1ccccc1 (stereo not shown) | 12.3 |
| CCOc1ccc(-c2n[nH]c(C(=O)NN)c2C)cc1 | -2.92 |
| COc1ccc(-c2nn(-c3ccccc3)cc2C(=O)NC(=S)N2CCOCC2)cc1OC | 19 |
| CC1=C(C(=O)OC2CCCCCCC2)C(c2cc3c(cc2Br)OCO3)CC(=O)N1 (stereo not shown) | 11.4 |
| COc1cc(/C=N\NC(=O)CN2CCOCC2)ccc1OCC(=O)Nc1ccc(C)c(C)c1 | -6.87 |
| NS(=O)(=O)c1ccc(CNC(=O)C2CCCCC2)cc1 | 7.53 |
| NC(=O)C(c1ccc(Cl)cc1Cl)c1ncc(C(F)(F)F)cc1Cl (stereo not shown) | -14.4 |
| CCN(C(=O)CSc1nc(C)nc2sc(C)c(C)c12)C1CCS(=O)(=O)C1 (stereo not shown) | 1.59 |
| COc1ccc(-c2nc3c(c(SCC(=O)N4CCOCC4)n2)Cc2c(CO)cnc(C)c2O3)cc1 | 10.4 |
| C=CCOc1cccc(/C=N/NC(=O)CC(=O)NC2CCCCC2)c1 | 15.4 |
| COc1cccc(N(CC(=O)NC2CCCCC2)C(=O)CCCC(=O)Nc2ccccn2)c1 | 14 |
| COc1ccc(Nc2nc3ccccc3nc2NS(=O)(=O)c2ccc(NC(C)=O)cc2)cc1 | 16.5 |
| CCCCNC(=O)Nc1ccccc1C(=O)NCc1ccco1 | 4.3 |
| COc1cccc(Nc2nc(=O)[nH]nc2C)c1 | -8.25 |
| COCCN=c1scc(-c2ccc3c(c2)NC(=O)CO3)n1/N=C(\C)c1ccc(O)cc1 | -1.04 |
| CCOc1ccc(-c2cnc3n2CCCCC3)cc1 | -10.8 |
| C=CCn1c(SC2CCOC2=O)nc2sc(CC)cc2c1=O (stereo not shown) | -29.7 |
| O=P(c1ccccc1)(c1ccccc1)c1nc(-c2ccccc2)oc1NCc1ccccc1 | 1.11 |
| COc1ccc(CNC(=O)c2sc(=S)n(-c3ccc(OC)cc3)c2N)cc1 | -1.98 |

| Compound | hERG current change (%, negative = inhibition) at 1uM [%] |
| --- | --- |
| COC(=O)C1=C(N)OC2=C(C(=O)CC(C)(C)C2)C1c1cccs1 (stereo not shown) | 7.7 |
| CCCCOc1ccc(C(=O)Nc2cccc(-n3cnnn3)c2)cc1OC | 8.07 |
| Cc1[nH]n(-c2ccccc2)c(=O)c1C=Nc1ccc(S(N)(=O)=O)cc1 | -3.59 |
| CCOC(=O)c1cc(C)n(CCc2cnc[nH]2)c1C | 4.49 |
| COc1ccc(NC(=S)NC(NC(=O)c2cccc(Cl)c2)C(Cl)(Cl)Cl)c([N+](=O)[O-])c1 (stereo not shown) | 9.21 |
| COc1ccc(CNC(=O)CN2CCN(c3ccccc3O)CC2)cc1OC | 14.1 |
| COc1ccc(C(=O)c2sc(Nc3ccccc3)nc2C)cc1 | 3.32 |
| CC(=O)c1ccc(NC(=O)CSc2nnc(Cn3c(=O)sc4ccccc43)n2C)cc1 | 6.7 |
| COc1ccc(/C=C2\SC(=S)N(CCC(=O)NCCc3ccc(O)cc3)C2=O)cc1 | 14 |
| CCc1ccc(/C=C2\SC(=S)N(CCCC(=O)Nc3ccc(C(=O)O)cc3)C2=O)cc1 | 18.3 |
| COC(=O)CCCNC(=O)c1ccc2[nH]c(C)c(C)c2c1 | 9.74 |
| COc1ccc(CCNC(=O)c2c(C)noc2C)cc1 | 9.91 |
| Br.COc1ccc(C2=Nn3c(C)nnc3SC2)cc1 | 15.5 |
| Cn1c[n+](C)cc1C(O)c1ccccc1.[I-] (stereo not shown) | 13.8 |
| Cc1cc(C)c(NC(=O)c2sc3nc4c(cc3c2N)C(=O)CC(C)(C)C4)c(C)c1 | 13.4 |
| C#CCOCCOCCOCCNc1nc(N2CCN(C(=O)[C@H](C(C)C)n3cc(CCO)nn3)CC2)nc(N2CCN(C(=O)[C@H](CCCC[NH3+])n3cc(CCCC)nn3)CC2)n1.[Cl-] | 8.8 |
| COC(=O)c1cccc(-n2c(=O)n(Cc3ccccc3)c(=O)c3[nH]cnc32)c1C | 17 |
| Cc1ccc(S(=O)(=O)N2CCN(C(=O)c3cc(=O)c4ccccc4o3)CC2)cc1 | -2.49 |
| Cc1cccc(/C(N)=N/OC(=O)c2ccc3c(c2)OCO3)c1 | 4.44 |
| Cc1cc(C)nc(NC(=S)Nc2ccc(Br)cc2Cl)c1 | -20.3 |
| Oc1cc2c(cc1CN1CCN(c3ccccc3)CC1)OCO2 | 16.4 |
| Cc1csc(NC(=O)C2CCCN(S(=O)(=O)c3ccc(Br)s3)C2)n1 (stereo not shown) | 12.5 |

| Compound | hERG current change (%, negative = inhibition) at 1uM [%] |
| --- | --- |
| CC(C)c1ccccc1NC(=O)CN1C(=O)c2ccccc2C1=O | 4.33 |
| CC(C)(C)NC(=O)c1cccc2c1C(=O)c1ccccc1-2 | 12.7 |
| CC1CCN(S(=O)(=O)c2cn(CC(=O)Nc3cccc(C#N)c3)cn2)CC1 | 12.7 |
| COc1ccc(CC(=O)OCC(=O)N(C)C2CCS(=O)(=O)C2)cc1OC (stereo not shown) | 12.3 |
| CC(=O)N[C@@H](Cc1c[nH]c2ccccc12)C(=O)OCC(=O)Nc1ccc(S(=O)(=O)N(C)C)cc1 | 8.27 |
| COc1cccc2cc(-c3nnc(SCC(=O)Nc4ccc(NC(C)=O)cc4)n3C)oc12 | 15.4 |
| NC(=O)CCN(C1CCCCC1)S(=O)(=O)c1cccc2nsnc12 | 11.3 |
| CC1Cc2ccccc2N1S(=O)(=O)c1cccc(C(=O)NNC(=O)c2ccccc2F)c1 (stereo not shown) | 8.14 |
| COc1ccc(S(=O)(=O)N2CCN(C)CC2)cc1NC(=O)c1ccccc1 | -5.77 |
| COc1cc(-c2nnc3sc(Cc4ccc(Cl)cc4)nn23)cc(OC)c1OC | 10.8 |
| COc1ccc(NC(=O)C2CCC(CNc3c(N4CCCCC4)c(=O)c3=O)CC2)c(OC)c1 (stereo not shown) | 8.82 |
| COc1ccc(NS(=O)(=O)c2ccc(Oc3cccc(C(=O)O)c3)cc2)cc1 | 15.4 |
| CC(=O)c1c(C)n([O-])c2ccc(C)cc2[n+]1=O | 5.93 |
| Cc1cccc(NC(=O)c2cc(N3C(=O)CCC3=O)ccc2Cl)n1 | 6.01 |
| Cc1ccc(/C=C2/Sc3ccc(C(=O)N4CCC5(CC4)OCCO5)cc3NC2=O)cc1 | 11.9 |
| CCOC(=O)c1c(NC(=O)CSc2nc3ccccc3o2)sc(C(C)=O)c1C | 17.1 |
| COc1ccc(NC(=O)C2CCOC(C)(C)C2)cc1 (stereo not shown) | 18.2 |
| Cc1ccc(S(=O)(=O)N(CC(=O)Nc2cccc([N+](=O)[O-])c2)Cc2ccc(Cl)cc2)cc1 | 10.8 |
| COc1cccc(CNC(=O)Cn2nc([N+](=O)[O-])c(Br)c2C)c1 | 13.9 |
| CCn1c(C)cc(/C=C2\NC(=O)N(Cc3ccccc3)C2=O)c1C | 10.5 |
| COC(=O)c1sccc1NC(=S)Nc1ccc(OC)cc1 | 8.21 |
| COc1ccc(-c2nc3scc(-c4ccc(OC)c(OC)c4)c3c(=O)o2)cc1 | 9.24 |

| Compound | hERG current change (%, negative = inhibition) at 1uM [%] |
| --- | --- |
| Brc1cnc(N2CCCC2)nc1N1CCCCC1 | 10.1 |
| CN1C(=O)N(C)C(=O)C2(Sc3ccccc3C2=O)C1=O | 3.6 |
| Cc1ccc(CCNC(=O)CN(c2ccc(C)cc2)S(=O)(=O)c2c(C)noc2C)cc1 | 8.31 |
| O=C1CC(c2ccc(F)cc2)C(n2cncn2)C(O)=C1C1NCCc2ccccc21 (stereo not shown) | 9.88 |
| Cc1ccccc1NC(=O)CSCc1nc(N)nc(Nc2ccccc2C)n1 | 9.06 |
| CCS(=O)(=O)N1CCC(C(=O)NCCN2CCOCC2)CC1 | 1.79 |
| C=CCN(C(=O)c1csnn1)C(C(=O)NCc1ccc(F)cc1)c1sccc1C (stereo not shown) | 5.04 |
| COC(=O)C1=C(C)N(c2cccc(Cl)c2)C(=O)C1 | 6.88 |
| CC(=O)NC(CC(=O)OCC(=O)N1CCN(S(=O)(=O)c2ccc(C)cc2C)CC1)c1ccccc1 (stereo not shown) | 0.916 |
| Cc1c(Cc2ccccc2)c(=O)oc2cc(OCC(=O)NCC(O)c3ccccc3)ccc12 (stereo not shown) | 11.8 |
| CCOC(=O)N1CCN(c2ccc(F)cc2[N+](=O)[O-])CC1 | 1.26 |
| COC(C[C@@H]1O[C@@H]1[C@H](O)[C@@H](C)OCc1ccccc1)OC | -4.75 |
| CCOC(=O)c1ccc[n+](C(C)C(=O)c2ccc(-c3ccccc3)cc2)c1.[Br-] (stereo not shown) | -0.939 |
| CC(=O)Oc1ccc2c(c1)c(C(C)=O)c(C)n2C | 9.13 |
| Cl.c1ccc(N2CCCCC2)c(NC2=NCCC2)c1 | 6.94 |
| COCCn1c(=O)[nH]c2cc(C(=O)NCCc3ccc(S(N)(=O)=O)cc3)ccc2c1=O | 19.5 |
| COc1ccccc1Nc1nc(N)nc(CN2CCCCCC2)n1 | -32.2 |
| Cc1ccc2nc(C(F)(F)F)c(C#N)c(N)c2c1 | 4.3 |
| CCn1c(SCc2nc(-c3ccc(Cl)cc3)no2)nnc1-c1ccco1 | 0.342 |
